# Experimental data taken from PubChem BioAssay AID686979 (National Center for Advancing Translational Sciences (NCATS), 2013).
# Among all 420,000 compounds or so, about 50,000 (12%) were called active. This list was built around the results that the source calls inconclusive (neither active nor inactive); the mix of calls is not that of the screen. Calls come from the whole dose curve; as a rule, active = well fitted inhibition curve with a large enough effect; inconclusive = small, poorly fitted or top-dose-only effect; inactive = flat fitted curve, though single readings scatter. No potency is given beside an inconclusive call; the fits are too rough.
# Experiment: qHTS for Inhibitors of human tyrosyl-DNA phosphodiesterase 1 (TDP1): qHTS in cells in presence of CPT; note: nearly all actives have a fitted effect of over 55% in size
# Settings: chicken DT40 Tdp1-/-;hTDP1 cells + 20 nM CPT, ATP luminescence, 48 h; activity change, negative = growth inhibition: at 46.2 µM (top of the series)
# Procedure, shortened: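 Chicken DT40 Tdp1-/- cells stably complemented with human TDP1 were seeded at 400 cells/well in medium containing 20 nM camptothecin, exposed to pin-transferred compounds, and grown at 37 °C for at least 48 hr. Viability was read as ATP luminescence.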
# % is set by controls: 0 for no effect and ±100 for the full control effect; potency is the fitted concentration of half-maximal effect; tags give direction and shape of the fitted curve.
SMILES,Potency,"activity change, negative = growth inhibition"
COCCCC1CCN(C(=O)CCc2nnc(CCCCc3ccccc3)o2)CC1,"inconclusive [inhibitor, single point]",
COCCOC(=O)c1c(NC(=O)CNC2CCCc3ccccc32)sc(C(N)=O)c1C (configuration not stated),"inconclusive [inhibitor, single point]",
CCN1CCN(Cc2coc3ccc(C)cc3c2=O)CC1,,inconclusive: -15% [inhibitor]
Cc1ccc(C)c(N)c1,,inactive: -16.1%
Cc1ccc(C(=O)N/C(=C/c2cccnc2)C(=O)N2CCCCCC2)cc1,,inactive: 5.99%
O=C1CCCN2N=C(SCC(=O)Nc3cccc(F)c3)SC2=N1,active: 20.6 µM,
Cc1ccc(-c2[nH]ncc2/C=C(\C#N)C(=O)NC2CCCCC2)cc1,"inconclusive [inhibitor, single point]",
CCCCC1=CC2=CC(=O)C(C)(OC(=O)CC)C(=O)C2=CN1C1CCCCC1 (configuration not stated),"inconclusive [inhibitor, single point]",
NC(=O)c1ncn([C@@H]2O[C@H](CNCc3ccc(OCC(=O)Nc4nccs4)cc3)[C@@H](O)[C@H]2O)n1,,inactive: -10.3%
CN(CC1COCCO1)C(=O)c1cnn(-c2ncc3c(n2)-c2ccccc2CCC3)c1C1CC1 (configuration not stated),,inactive: -9.17%
COc1ccccc1N1CCN(CC2CN3C(=O)N(C)c4ccccc4C3=N2)CC1 (configuration not stated),"inconclusive [inhibitor, partial curve, poor fit]",
O=C(COc1coc(CN2CCN(c3ccccc3)CC2)cc1=O)Nc1ccccc1,,inconclusive: -31% [inhibitor]
COc1cc2c(cc1OC)C(c1ccc([N+](=O)[O-])cc1)NCC2 (configuration not stated),,inconclusive: -35% [inhibitor]
CSc1cccc(NC(=O)CN(C)S(=O)(=O)c2ccc3c(c2)CCCN3C(C)=O)c1,"inconclusive [inhibitor, single point]",
CCOC(=O)C1(CCC(C)C)CC(CSc2nc3ccccc3[nH]2)OC1=O (configuration not stated),active: 11.6 µM,
COc1cc(C2C(C(=O)c3sc(C)nc3C)=C(O)C(=O)N2CCN(C)C)cc(OC)c1OC (configuration not stated),,inactive: 17.6%
CCCOc1cccc(C2c3c(oc4cc(C)c(C)cc4c3=O)C(=O)N2CCCN2CCOCC2)c1 (configuration not stated),"inconclusive [inhibitor, single point]",
O=C(CN1CCN(c2ccccc2)CC1)Nc1ccc(OCc2ccccc2)cc1,"inconclusive [inhibitor, partial curve]",
COc1ccc(NC(=O)c2cncc(Br)c2)c(S(=O)(=O)N2CCOCC2)c1,"inconclusive [inhibitor, partial curve]",
CCOc1ccccc1C(=O)N1CCCCC1CCN1CCOCC1 (configuration not stated),,inactive: -7.28%
Cc1ccc2oc(C(=O)N(Cc3ccccc3)C3CCS(=O)(=O)C3)c(C)c2c1 (configuration not stated),"inconclusive [inhibitor, single point]",
CCc1noc(C)c1C(=O)N1CCCC(N2CCN(c3ccccc3F)CC2)C1 (configuration not stated),,inactive: -24.3%
CC(OC(=O)c1c[nH]c2ccccc12)C(=O)N1CCCC1 (configuration not stated),,inactive: -1.09%
Cc1ccc(-c2nc3cc(NC(=O)c4cc(Br)ccc4Cl)ccc3o2)cc1,active: 5.8 µM,

SMILES,Potency,"activity change, negative = growth inhibition"
CC1CCCC(C)N1C(=O)Cn1cc(C#N)c2ccccc21 (configuration not stated),,inactive: -4.82%
Cc1cc(C)nc(N2CCC(C(=O)N3CCN(c4cc(Cl)ccc4C)CC3)CC2)n1,"inconclusive [inhibitor, single point]",
Clc1ccc(C=NN2CCCCCC2)c(Cl)c1,,inactive: -12.2%
CCC(=O)Nc1nnc(SCC(=O)Nc2ccc(F)cc2)s1,"inconclusive [inhibitor, partial curve]",
O=S(=O)(c1ccc(=S)[nH]c1)N1CCN(Cc2ccccc2)CC1,"inconclusive [inhibitor, single point]",
Cc1ccc(Oc2ncccc2C(=O)NC2CCSC2=O)cc1 (configuration not stated),,inactive: 6.7%
Cc1ccc(C)c(C(=O)CSc2nc3cc(C(=O)NC4CCCC4)ccc3c(=O)n2CC2CCCO2)c1 (configuration not stated),active: 18.4 µM,
CCn1cc(C(=O)N2CCN(c3ccccc3F)CC2)c(=O)c2ccc(C)nc21,,inactive: -17.1%
Cc1ccc(-c2n[nH]c3c2C(c2cccs2)N(c2ccc(Cl)cc2)C3=O)cc1 (configuration not stated),active: 16.4 µM,
CCC(CC)C1C(C#N)=C(N)Oc2n[nH]c(-c3ccccc3)c21 (configuration not stated),"inconclusive [inhibitor, single point]",
COc1ccc(-c2cc(C(=O)N/N=C/c3ccc4c(c3)OCO4)c3ccccc3n2)c(OC)c1,active: 9.2 µM,
O=C(COc1ccccc1[N+](=O)[O-])NCC1(N2CCCCC2)CCCCC1,"inconclusive [inhibitor, single point]",
Cc1ccc2[nH]c(=O)c(C(c3nnnn3Cc3ccccc3)N3CCc4ccccc43)cc2c1 (configuration not stated),"inconclusive [inhibitor, single point]",
Cc1cc(N2CCN(c3ccccc3)CC2)n2ncnc2n1,,inactive: -21.8%
c1ccc2c3n(nc2c1)CCCO3,,inactive: 14.1%
COc1ccc(N2CCN(Cc3nc(-c4ccc(C)cc4)no3)CC2)cc1,"inconclusive [inhibitor, single point]",
CCOc1cc2[nH]c(=O)n(CCCCCC(=O)NC(C)CC)c(=O)c2cc1OCC (configuration not stated),"inconclusive [inhibitor, single point]",
CC(C)(C)C(=O)Nc1nnc(SCc2cccc(F)c2)s1,"inconclusive [inhibitor, single point]",
COc1ccc(-n2c(=O)c3c4c(sc3n3cnnc23)CC(C)CC4)cc1 (configuration not stated),"inconclusive [inhibitor, partial curve]",
CC(C)(C)c1csc(NC(=O)c2c(F)c(F)c(F)c(F)c2F)n1,"inconclusive [inhibitor, single point]",
CCN(CCCNC(=O)c1[nH]c(C)c(C(C)=O)c1C)c1cccc(C)c1,"inconclusive [inhibitor, single point]",
COc1ccc(S(=O)(=O)Nc2cc(C)ccc2OC)cc1C,,inconclusive: -31.8% [inhibitor]
O=C1CC(c2ccsc2)Sc2ccccc2N1 (configuration not stated),,inactive: 0.397%
